According to PubChem BioAssay AID1030 (National Center for Advancing Translational Sciences (NCATS), 2008):
About 16,000 (7.3%) of roughly 220,000 compounds were called active. Inconclusive means that the source gave no clear call. Such entries were picked first, then a sample of the others. Calls follow the shape of the dose curve; as a rule, active = well fitted inhibition curve with a large enough effect (not every such curve was filed as active); inconclusive = small, poorly fitted or top-dose-only effect, or another doubt; inactive = no such curve, though single readings can be large or run the other way. Potencies of inconclusive entries are doubtful fits and often do not repeat.

molecular target: Aldehyde dehydrogenase 1A1 (Homo sapiens) (UniProt P00352); assay: qHTS Assay for Inhibitors of Aldehyde Dehydrogenase 1 (ALDH1A1); conditions: Purified ALDH1A1, NADH fluorescence, propionaldehyde substrate; series mostly up to 75.3 µM; activity, negative = inhibition: at the top concentration;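 as to activity, negative = inhibition: plate controls were no enzyme wells and a reference inhibitor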
Sequence of UniProt P00352 (P00352 whole entry, looked up): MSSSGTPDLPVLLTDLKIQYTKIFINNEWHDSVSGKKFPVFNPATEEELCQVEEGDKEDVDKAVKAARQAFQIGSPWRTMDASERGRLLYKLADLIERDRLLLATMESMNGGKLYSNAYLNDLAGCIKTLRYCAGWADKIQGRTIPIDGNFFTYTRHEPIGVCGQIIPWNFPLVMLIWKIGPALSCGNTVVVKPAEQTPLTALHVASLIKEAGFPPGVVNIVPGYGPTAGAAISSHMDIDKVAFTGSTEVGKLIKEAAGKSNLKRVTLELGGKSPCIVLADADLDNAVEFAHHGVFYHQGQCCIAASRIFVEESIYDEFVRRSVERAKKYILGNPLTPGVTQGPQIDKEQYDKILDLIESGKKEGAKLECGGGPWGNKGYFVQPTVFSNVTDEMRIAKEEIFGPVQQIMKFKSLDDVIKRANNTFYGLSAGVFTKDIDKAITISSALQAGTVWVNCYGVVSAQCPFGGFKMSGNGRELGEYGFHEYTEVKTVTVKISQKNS
Potency is read from the fitted curve at half-maximal effect; tags tell the direction and shape of the fitted curve.

Potency, inactive:
c1ccc2c(c1)CCCC2C1=NCCN1 (stereo not drawn)

Potency, active:
CSc1nc(N)nc(SCCS(=O)(=O)c2ccc(Cl)cc2)c1C#N 2.51 µM
CC(=O)N1CCc2cc(S(=O)(=O)CCC(=O)N3CCN(C(=O)c4ccco4)CC3)ccc21 31.6 µM
COCCOC(=O)c1c(C)oc2ccc(NS(=O)(=O)c3ccccc3)cc12 20 µM
Cc1cc(F)ccc1NCC(=O)Nc1ccccc1Br 28.2 µM
O=C(Cc1cnn(-c2ccccc2)c1)c1ccc(O)c(O)c1O 3.16 µM
COc1cc(NC(=S)Nc2ncccc2C)cc(OC)c1OC 17.8 µM
N#CC1=C(SCC(=O)Nc2ccc(C(=O)O)cc2)NC(=O)CC1c1ccco1 (stereo not drawn) 12.6 µM
S=c1[nH]nc(COc2ccc3c(c2)OCO3)n1-c1ccccc1 14.1 µM

Potency, inconclusive:
COc1ccccc1N(C(=O)c1snc(C(N)=O)c1N)C(C(=O)NC1CCCC1)c1ccco1 (stereo not drawn) 39.8 µM [inhibitor, single point]
COc1ccc(CCN2C(=O)/C(=C\c3ccco3)SC2=S)cc1OC 14.1 µM [inhibitor, partial curve, poor fit]
CCOC(=O)c1ccc(NC(=S)N(CCN2CCCCCC2)Cc2ccco2)cc1 39.8 µM [inhibitor, single point]
CC(=O)c1ccc(OC2C=CC(C#Cc3ccc(Br)cc3)OC2CO)cc1 (stereo not drawn) 3.16 µM [inhibitor, single point]
COC(=O)c1ccc(NC(=O)c2ccccc2NS(=O)(=O)c2ccccc2)cc1 39.8 µM [inhibitor, single point]
Cc1ccc(-c2nn(-c3ccccc3)cc2/C=C/C(=O)O)o1 25.1 µM [inhibitor, partial curve]
CCOC(=O)C1=C(C)NC(C)=C(C(=O)OCC)C1c1cn(-c2ccccc2)nc1-c1ccco1 18.9 µM [inhibitor, partial curve]
CCCCCCCCNC(=O)/C(C#N)=C/c1ccc2c(c1)OCCO2 23.8 µM [inhibitor, partial curve]
CC(C)=CCCC1=CCC(/C=N/NC(N)=O)C(C)C1 (stereo not drawn) 39.8 µM [inhibitor, single point]
CC(C)Sc1nc2c(c(=O)[nH]1)C(c1cccs1)C1=C(CC(C)(C)CC1=O)N2 (stereo not drawn) 28.2 µM [inhibitor, partial curve]
N#Cc1c(N2CCCCC2)nc(N2CCCCC2)c2c1CCN(Cc1ccccc1)C2 25.1 µM [inhibitor, partial curve]
COc1ccc2o/c(=N\O)c(C(=O)Nc3ccccc3OC)cc2c1 39.8 µM [inhibitor, single point]
COc1ccc(C(=O)/C=C/c2cn(CC(O)CN3CCOCC3)c3ccccc23)cc1 (stereo not drawn) 12.6 µM [inhibitor, partial curve]
N#Cc1cccc(NC(=O)N2CC3(CCN(C(=O)c4cccc(F)c4)CC3)C2)c1 3.16 µM [inhibitor, full curve]
COc1cc2c(cc1OC)C(c1ccc3c(c1)OCO3)C1=C(CC(C)(C)CC1=O)N2 (stereo not drawn) 39.8 µM [inhibitor, single point]
CCc1nnc(NC(=O)CSc2ncc(-c3ccccc3)[nH]2)s1 28.2 µM [inhibitor, single point]
CC(C)CC1C(C#N)=C(N)Oc2n[nH]c(-c3cccs3)c21 (stereo not drawn) 17.8 µM [inhibitor, single point]
O=c1oc2c3c4c(cc2c(C(F)(F)F)c1CCN1CCOCC1)CCCN4CCC3 20 µM [inhibitor, single point]
Cc1nn(-c2ccccc2)c2sc(C(=O)OC3CCOC3=O)cc12 (stereo not drawn) 23.8 µM [inhibitor, single point]
O=c1c(Cc2c(F)cccc2Cl)c(O)ccn1CCCn1ccnc1 39.8 µM [inhibitor, single point]
COC(=O)c1[nH]c2cccc(OC)c2c1NC(=O)CN(C)CC1OCCO1 31.6 µM [inhibitor, partial curve]
CN(C)S(=O)(=O)c1cc(NC(=O)COC(=O)Cc2cccc3ccccc23)ccc1Cl 15 µM [inhibitor, partial curve]
Cc1nnc(NC(=O)CC(NC(=O)C(F)(F)F)c2ccccc2)s1 (stereo not drawn) 37.7 µM [inhibitor, single point]
CCOc1ccccc1C1N=C(c2ccc(OC)cc2)CC(c2ccccc2O)N1 (stereo not drawn) 39.8 µM [inhibitor, single point]
Cc1ccc(SCc2[nH]nc3c2C(c2cccnc2)C(C#N)=C(N)O3)cc1 (stereo not drawn) 39.8 µM [inhibitor, single point]
O=S(=O)(NCCCc1ccccc1)c1ccccc1 39.8 µM [inhibitor, single point]
COc1ccc2[nH]c3c(=O)n(Cc4ccco4)cnc3c2c1 25.1 µM [inhibitor, partial curve]
COCCCNC(=O)C(=O)C1C(=O)Nc2ccccc21 (stereo not drawn) 39.8 µM [inhibitor, single point]
O=C(COC(=O)c1cc(-c2ccccc2)nc2ccccc12)NCC1CCCO1 (stereo not drawn) 39.8 µM [inhibitor, single point]
CCOc1cc(C2NN=C(c3ccccc3)S2)ccc1OCc1ccccc1Cl (stereo not drawn) 11.2 µM [inhibitor, partial curve]
COc1ccc2[nH]c(=O)c(CN(CCN(C)C)C(=O)NCc3ccccc3)cc2c1 39.8 µM [inhibitor, single point]
Cc1c(CN2CCN(c3cccc(C(F)(F)F)c3)CC2)c(=O)n(-c2ccccc2)n1C 39.8 µM [inhibitor, single point]
Cc1ccc(S(=O)(=O)N2CCOCC2)cc1C(=O)OCC(=O)Nc1ccc2c(c1)OCO2 25.1 µM [inhibitor, single point]
COC(=O)Nc1ccc(SCC(=O)c2ccc(Cl)cc2)cc1 39.8 µM [inhibitor, single point]
Cc1oc(/N=C/c2ccc(O)cc2O)c(C#N)c1C 39.8 µM [inhibitor, single point]
O=C(NC(=S)N1CCc2ccccc21)c1ccccc1Br 39.8 µM [inhibitor, single point]
COc1ccc(CC(=O)N(Cc2cc3cc(OC)ccc3[nH]c2=O)C(C)C)cc1 22.4 µM [inhibitor, partial curve]
COc1ccc(C(=O)COC(=O)CNC(=O)C2CCCCC2)c(OC)c1 39.8 µM [inhibitor, single point]
CCN(CC)C(=O)CSc1nnc(-c2ccc(S(=O)(=O)N3CCCC3)cc2)o1 39.8 µM [inhibitor, single point]
Cc1nnc(NC(=O)CSc2nc3c(c(=O)n2C)SC(C)C3)s1 (stereo not drawn) 25.1 µM [inhibitor, single point]
Cc1onc(-c2ccccc2)c1C(=O)Nc1nc2c(s1)CCCC2 39.8 µM [inhibitor, single point]

activity, negative = inhibition, inactive:
CCOC(=O)C1=C(C)Nc2ccccc2N=C1NC(=O)Cc1ccc(OC)cc1 -9.91%
CCC(C)NC(=O)C1c2cc(OC)c(OC)cc2C(=O)N(C)C1c1ccc(OC)cc1 (stereo not drawn) 2.38%
Nc1ccc(OCC(O)C[n+]2ccc(CCS(=O)(=O)[O-])cc2)cc1 (stereo not drawn) -10%
Cc1cccc(C)c1NC(=O)c1ccc(CN2CCc3ccccc3C2)cc1 4.47%
Cc1ccc(C(=O)NC(N2CCCC2)C(Cl)(Cl)Cl)cc1 (stereo not drawn) -11.4%
CSc1ccccc1NC(=O)CN(C)CC(=O)Nc1ccccc1C(F)(F)F 0.774%
O=C(NC(=S)Nc1cccc2cnccc12)c1ccccc1 -6.4%
CSCC[C@@H](N)C(=O)O -0.202%
CC(C)N(C(=O)CN1C(=O)NC2(CCCCCC2)C1=O)C(C)C -4.01%
CC(C)(C)C1CCC(=NNC(=O)C(=O)NCc2cccnc2)CC1 (stereo not drawn) 14%
COC(=O)c1sccc1NN1C(=O)c2ccccc2C1=O 4.1%
Cc1ccc(C(=O)NC2c3ccccc3-c3ccccc32)cc1 7.21%
Cc1c(-c2n[nH]c(=S)n2-c2ccc(Br)cc2)nnn1-c1ccc(Cl)cc1 10.5%
O=c1c(N=Nc2ccc(O)cc2)c(-c2ccccc2)[nH]n1-c1ccc([N+](=O)[O-])cc1 -13.4%
CC[C@H](C)[C@@H]1NC(=O)c2cc([N+](=O)[O-])cc(F)c2OCC[C@@H](C(N)=O)NC(=O)[C@H](CCCCN)NC1=O 3.44%
Cc1[nH]c2ccc(-c3n[nH]c(=S)n3-c3ccc(Br)cc3)cc2c1C 13.1%
CC(O)CNC(=O)c1ccc(-c2nn(C)c(=O)c3ccccc23)cc1 (stereo not drawn) 13.8%
Cc1ccc(-n2[nH]c(C)c(/C=N/NC(=O)c3ccc([N+](=O)[O-])cc3)c2=O)c(C)c1 5.39%
CCOC(=O)N1CCC(c2cc(=O)n3[nH]c(C)c(-c4ccc(F)cc4)c3n2)CC1 2.14%
Cc1cc(C)cc(C(=O)NN2CCOCC2)c1 10.7%
CC(=O)NC(=S)Nc1ccc(NC(=O)c2cccs2)cc1 -13.3%
COC(=O)c1ccc(NC(=O)Cn2nc(C)cc2C)cc1 0.0402%
COc1ccc(/C=N/N(Cc2ccccc2)c2ccccc2)cc1O -4.5%
